Laboratory results reported in publication PMC4336329 (PLoS ONE, 2015).
Hit rate of the full screen: of about 310,000 compounds, about 2,200 (0.71%) showed an effect of 50% or more. Effects have a minus sign here. The list shows a part of the results.

target: human ether-à-go-go-related gene (hERG) potassium channel (human, UniProt Q12809); assay: primary screen, population patch clamp on CHO cells stably expressing hERG
Sequence (Q12809 whole entry, looked up): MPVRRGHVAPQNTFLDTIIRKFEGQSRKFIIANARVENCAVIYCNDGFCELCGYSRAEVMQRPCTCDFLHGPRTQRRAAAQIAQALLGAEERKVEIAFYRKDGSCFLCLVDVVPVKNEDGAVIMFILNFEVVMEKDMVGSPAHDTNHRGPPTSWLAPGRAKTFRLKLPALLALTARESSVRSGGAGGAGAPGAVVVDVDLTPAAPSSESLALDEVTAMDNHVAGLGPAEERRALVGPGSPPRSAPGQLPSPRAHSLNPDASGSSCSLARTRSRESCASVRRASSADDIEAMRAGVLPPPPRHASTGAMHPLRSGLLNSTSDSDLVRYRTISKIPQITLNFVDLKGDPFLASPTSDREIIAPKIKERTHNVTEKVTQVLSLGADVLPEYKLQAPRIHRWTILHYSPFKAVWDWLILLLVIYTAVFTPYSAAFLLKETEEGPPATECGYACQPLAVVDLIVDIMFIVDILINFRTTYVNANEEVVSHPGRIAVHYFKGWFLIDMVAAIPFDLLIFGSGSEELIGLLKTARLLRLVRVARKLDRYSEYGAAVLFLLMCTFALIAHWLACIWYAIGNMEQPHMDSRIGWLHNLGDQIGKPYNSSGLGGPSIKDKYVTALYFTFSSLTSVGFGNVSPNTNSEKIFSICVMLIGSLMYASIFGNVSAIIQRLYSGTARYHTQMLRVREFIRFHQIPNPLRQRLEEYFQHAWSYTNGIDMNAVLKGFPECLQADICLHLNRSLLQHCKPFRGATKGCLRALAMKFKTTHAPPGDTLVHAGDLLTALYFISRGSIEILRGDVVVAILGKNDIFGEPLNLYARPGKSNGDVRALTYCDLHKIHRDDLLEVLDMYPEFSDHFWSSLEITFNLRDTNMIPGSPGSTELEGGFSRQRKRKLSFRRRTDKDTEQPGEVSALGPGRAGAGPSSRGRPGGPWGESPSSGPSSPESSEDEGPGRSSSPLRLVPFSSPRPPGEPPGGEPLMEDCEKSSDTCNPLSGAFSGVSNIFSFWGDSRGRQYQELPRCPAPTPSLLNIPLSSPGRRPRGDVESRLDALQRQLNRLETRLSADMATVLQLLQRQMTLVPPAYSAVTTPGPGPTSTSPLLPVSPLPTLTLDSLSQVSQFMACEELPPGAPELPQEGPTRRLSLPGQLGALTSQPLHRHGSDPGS

| Compound | hERG current change (%, negative = inhibition) at 1uM [%] |
| --- | --- |
| N#Cc1cccc(S(=O)(=O)NCC(=O)NCCCc2ccccc2)c1 | 9.15 |
| Cc1ccc(C(=O)CN2CCC(NC(=O)C3CCCCC3)CC2)cc1 | -7.65 |
| CC1=CC(C)(C)N(C)C(=O)N1c1ccc(Cl)cc1 | 9.35 |
| C=CCNC(=S)N1CCN(S(=O)(=O)c2ccc(C)cc2)CC1 | -1.66 |
| COCCN(C(=O)CN1CCc2ccccc21)c1c(N)n(Cc2ccccc2)c(=O)[nH]c1=O | 6.55 |
| CN1CCN(C(=O)/C(=C/c2cn(S(=O)(=O)N(C)C)c3ccccc23)NC(=O)c2ccccc2)CC1 | 4.83 |
| CCOc1ccc2c(c1)C(N(CCN1CCOCC1)C(=S)Nc1ccccc1OC)CC(C)(C)O2 (stereo not shown) | -2.61 |
| Cc1cccc(NC2=C/C(=N/S(=O)(=O)c3cccs3)c3ccccc3C2=O)c1 | 14 |
| COc1ccc(CC(=O)NC2CCN(Cc3nnnn3C(C)(C)C)CC2)cc1OC | 20 |
| COCCOc1cc(-n2cccc2)c(Cl)cc1Cl | 4.8 |
| N#Cc1c(/N=C/c2ccc(-c3ccc(C(=O)O)c(Cl)c3)o2)sc2c1CCCC2 | 5.55 |
| NC(=O)c1cc([N+](=O)[O-])ccc1NCc1cccc([N+](=O)[O-])c1 | -3.78 |
| c1csc(CN2CCN(Cc3cccs3)C2c2cccs2)c1 | 4.62 |
| CC1CC1c1ccc(/C=C(\C#N)C(=O)Nc2ccc(Cl)cc2)o1 (stereo not shown) | 16 |
| COc1cc2c(cc1OC)CN(Cc1cc(=O)n3c(-c4ccccc4)csc3n1)CC2 | 14.9 |
| C/C(=N\Nc1cccc2cccnc12)c1ccc(C)cc1 | 5.99 |
| CC1=C(C(=O)OCc2ccccc2)C(c2ccccc2)NC(=O)N1CCCC(=O)O (stereo not shown) | -11.4 |
| CC(C)CN(C(=O)CCNC(=O)c1ccccc1Cl)C1CCS(=O)(=O)C1 (stereo not shown) | 11.6 |
| Cc1ccc(C(=O)N2CCN(c3ncccn3)CC2)cc1 | 10.9 |
| OCCN1CCOCCOc2ccccc2OCCOCC1 | 16.3 |
| COC(=O)C1CCN(C(=O)c2ccc3oc(Cc4ccc(Cl)cc4)nc3c2)CC1 | 9.78 |
| CC(=O)Nc1c(C)nn(-c2ccc(C)c(C)c2)c1C | 10.3 |

| Compound | hERG current change (%, negative = inhibition) at 1uM [%] |
| --- | --- |
| COc1ccc(NC(=O)c2cccnc2SC)cc1S(=O)(=O)N1CCCCC1 | 9.44 |
| COc1ccccc1CNC(=O)CSc1nc2ccccc2c(=O)n1CCCN1CCOCC1 | -6.17 |
| O=C(Cc1ccccc1)Oc1cccc(-n2cnnn2)c1 | 15.5 |
| CC(=O)n1nc2nc(C)cc(C)c2c1N | 12.7 |
| CC12CCC(C(=O)NCc3ccccn3)(OC1=O)C2(C)C (stereo not shown) | 13.1 |
| O=S(=O)(Nc1cccnc1)c1ccccc1 | 13.3 |
| CCOC(=O)/C(N=Nc1c(Br)cc(Br)cc1Br)=C(\C)O | 4.37 |
| CCn1c(Cc2ccccc2)nnc1SCC(=O)Nc1nc(C)c(C)s1 | 11.1 |
| Cc1c(C(=O)C(=O)N2CCOCC2)c2ccccc2n1Cc1ccccc1 | 12.9 |
| CCN1CCN(c2nc(Nc3ccc(NC(C)=O)cc3)nc(Nc3ccc(NC(C)=O)cc3)n2)CC1 | 7.22 |
| O=C(Nc1ccc(N2CCN(C(=O)c3cccs3)CC2)cc1)c1ccccc1F | 9.75 |
| CN(C)S(=O)(=O)c1ccc(-c2csc(N/N=C/c3ccco3)n2)cc1 | 12.9 |
| CC(=O)c1ccc(OCCCC(=O)OCC(=O)Nc2ccc3[nH]c(=O)[nH]c3c2)cc1 | 10.8 |
| O=C1c2ccsc2SCCN1Cc1c(Cl)cccc1Cl | -1.73 |
| O=C(COc1ccc(Cl)cc1)N1CCN(Cc2ccccc2)CC1 | 3.32 |
| O=C(NCCc1ccccc1)C1CC(=O)N(C2CCCCCC2)C1 (stereo not shown) | 15.6 |
| N#C/C(=C/c1ccc(Sc2nc3ccccc3[nH]2)o1)c1cccc(Br)c1 | 20.9 |
| CC(C)(C)C(=O)NC(NC(=S)Nc1sc2c(c1C#N)CCCC2)C(Cl)(Cl)Cl (stereo not shown) | 17.2 |
| CC(C)N(C(=O)CSc1nc(COc2ccccc2)nc2ccccc12)C(C)C | 10.5 |
| O=C(Cn1cc(C(=O)c2ccco2)c2ccccc21)Nc1ccccc1 | 14.9 |
| Cc1nnc2ccc(-c3cccc(NS(=O)(=O)c4cc(F)ccc4F)c3)nn12 | 5.12 |
| Cc1nnc(SCC(=O)NCc2ccc(F)cc2)[nH]c1=O | 15.5 |

| Compound | hERG current change (%, negative = inhibition) at 1uM [%] |
| --- | --- |
| O=C(NCC1CCCO1)c1ccccc1NS(=O)(=O)c1cccs1 (stereo not shown) | 12.6 |
| CC(OC(=O)C1CC(=O)N(Cc2ccco2)C1)C(=O)Nc1ccc(F)cc1Cl (stereo not shown) | 25.5 |
| O=C(NCc1ccc(F)cc1)N1CCN(C(=O)c2ccccc2)CC1 | 9.81 |
| COc1nc(OC)nc(N2CCC(NC(=O)C(Cc3cccc(OC)c3OC)NC(C)=O)CC2)n1 (stereo not shown) | 7.54 |
| S=C(NCc1ccc(Cl)cc1)NC12CC3CC(CC(C3)C1)C2 | 10.7 |
| CC(C)CNC(=S)NNC(=O)c1csc2c1CCC(C)C2 (stereo not shown) | 0.758 |
| O=C(c1cccc(Br)c1)N1CCN(c2cnn(-c3ccccc3)c(=O)c2Cl)CC1 | -24.3 |
| CNc1oc(/C=C/c2cccc(OC)c2)nc1C#N | 13.1 |
| Cc1ccc(NC(=O)CN(C)S(=O)(=O)c2cccc3cccnc23)cc1C | 0.925 |
| O=C(O)c1ccnc(SCC(=O)c2ccccc2)c1 | 8.5 |
| Cc1ccc(-n2c(C)cc(C(=O)COC(=O)c3ccc[nH]c3=O)c2C)cc1 | 2.78 |
| Cc1nn(-c2ccccc2)c2nc(Cl)c(C(=O)O)cc12 | -3.23 |
| C=CCc1cccc([C@@H]2[C@@H](C)CC[C@H]3C(=O)N4[C@@H](c5cc(OC)c(OC)c(OC)c5)c5[nH]c6ccccc6c5C[C@H]4C(=O)N23)c1 | 16.3 |
| O=C(O)c1c(Cl)c(Cl)c(Cl)c(Cl)c1C(=O)N1CCCC1 | 15.1 |
| Cc1cc(C)nc(/N=C(/NC(=O)Nc2ccc(Cl)c(Cl)c2)Nc2cccc(Cl)c2)n1 | 12.8 |
| COc1ccc(CCNC(=O)c2cccc(S(=O)(=O)N3CCCCCC3)c2)cc1 | -21.3 |
| O=C(Cn1ncc2ccsc2c1=O)N1CCC2(CC1)OCCO2 | -6.32 |
| COc1ccc(OC)c(/C=N/NC(=O)C(=O)N2CCCCCC2)c1 | 14.7 |
| O=C(Nc1ccccn1)C1COc2ccccc2O1 (stereo not shown) | 14.7 |
| CC(/C=C/c1ccc(OCc2ccccc2)cc1)=N\O | -2.34 |
| COc1cc(OC)c([C@H]2C=C(C)[C@H]3C[C@@H]2C3(C)C)c(OC)c1 | 23.6 |
| Br.CC(C)=NNc1nc(-c2ccc(N3C(=O)CCC3=O)cc2)cs1 | 14.8 |

| Compound | hERG current change (%, negative = inhibition) at 1uM [%] |
| --- | --- |
| CC1CCCN(Cc2csc(N)n2)C1 (stereo not shown) | 7.5 |
| CC1CN(C(=O)c2cccc(S(=O)(=O)N3CCN(c4ccccc4)CC3)c2)CC(C)O1 (stereo not shown) | -0.256 |
| O=C(Nc1ccccc1Cl)OC1CCCCC1 | 14.4 |
| COc1cccc(C(=O)NCc2ccc(N3CCN(C(=O)OC(C)(C)C)CC3)cc2)c1 | 4.32 |
| COc1cc(SC)ccc1C(=O)N(Cc1ccccc1)c1ccccn1 | 10.2 |
| O=C(O)c1cccc(NC(=O)c2ccc(CN3C(=O)c4ccccc4C3=O)cc2)c1 | 25.2 |
| CCc1ccc(NC(=O)CCN2C(=O)c3cccnc3C2=O)cc1 | 8.16 |
| CCCCN(CC)CCNC(=O)C1CCCN(S(=O)(=O)c2cccc3nsnc23)C1 (stereo not shown) | -1.02 |
| COCCN(C(=O)CCC(=O)Nc1ccccn1)C(C(=O)NC1CCCC1)c1ccc(OC)cc1 (stereo not shown) | 10.2 |
| Cc1ccc2nc(-c3ccncc3)cc(C(=O)Nc3ccncc3)c2c1 | 9.22 |
| CCc1cc(C(=O)NNC(=O)CCN2CCN(c3ccccc3)CC2)sc1C | 11.5 |
| CC(=O)N1CCC(N(CCN2CCOCC2)C(=S)Nc2cc(C)cc(C)c2)CC1 | 7.36 |
| O=S(=O)(NCc1cccnc1)c1ccc2c(c1)OCCO2 | 2.54 |
| CCN(CC)c1ccc([N+](=O)[O-])cc1/C=N/NC(=O)CC#N | -1.88 |
| Cc1ccc(-c2nnc3n2N=C(c2ccc(Br)cc2)CS3)cc1 | 4.56 |
| CN(C)C1(CNC(=O)C2CCC(=O)N(CCc3ccc(Cl)cc3)C2)CCCCC1 (stereo not shown) | 4.39 |
| CN(C)S(=O)(=O)N1CCC(Oc2cccc(C(=O)NCCCC3CCCC3)c2)CC1 | 6.11 |
| O=C(Cc1ccccc1)NCC(=O)OCc1cccc([N+](=O)[O-])c1 | 12.2 |
| O=C(O)/C=C/C(=O)Nc1cc(F)ccc1F | 14.8 |
| CCCCOc1nc2c(c(=O)n(C)c(=O)n2C)n1C | 5.25 |
| Cc1cc(C)c(S(=O)(=O)N2CCCC2CNC(=O)c2ccc3c(c2)OCO3)c(C)c1 (stereo not shown) | 0.57 |
| O=C1C2(Cl)C3(Cl)C4(Cl)C(Cl)(Cl)C5(Cl)C3(Cl)C1(Cl)C5(Cl)C24Cl (stereo not shown) | 13.3 |
